{"source": "PubChem BioAssay AID686970", "about": "(National Center for Advancing Translational Sciences (NCATS), 2013)", "note": "Hit rate of the full screen: of about 360,000 compounds, about 6,000 (1.7%) were called active. Inconclusive means that the source gave no clear call. Such entries were picked first, then a sample of the others. The call rests on the fitted dose curve; in most records, active means well fitted cell-killing curve with a large enough effect; inconclusive means small, poorly fitted or top-dose-only effect, or effect the other way; inactive means flat fitted curve, though single readings scatter. No potency is given beside an inconclusive call; the fits are too rough. Potency means the concentration at half of the fitted maximal effect; tags describe the fitted curve by direction and shape.", "data": [{"assay": "qHTS for induction of synthetic lethality in tumor cells producing 2HG: qHTS for the HT-1080-NT fibrosarcoma cell line;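 further: NT is the 2HG producing partner of a matched IDH1 knockdown line; nearly all actives have a fitted effect of over 55% in size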;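 on activity, negative = less viability: 0% = DMSO-treated cells and -100% = media-only wells without cells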", "conditions": "HT-1080-NT fibrosarcoma viability, CellTiter-Glo ATP luminescence, 48 h; activity, negative = less viability: at 46.1 µM (top of the series) unless noted", "how_it_was_run": "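Compounds were tested in concentration-response format on HT-1080-NT cells for 48 hours at 37 degrees C. Cell viability came from CellTiter-Glo luminescence; curves were classified by r2, response magnitude and activity.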", "values": [{"smiles": "COc1cc2[nH]c(=O)c(C(=O)NCc3ccc(C)cc3)c(O)c2cc1OC", "Potency": "inactive"}, {"smiles": "O=S(=O)(Nc1c(O)ccc2ccccc12)c1ccccc1", "Potency": "inactive"}, {"smiles": "CCOC(=O)C[C@H]1c2ccccc2S(=O)(=O)N1Cc1cc(OC)c(OC)c(OC)c1", "Potency": "inactive"}, {"smiles": "Cc1cccc(NC(=O)CSc2nnc(CNC(=O)c3ccco3)n2C)c1C", "Potency": "inactive"}, {"smiles": "COc1ccc(NC(=O)C(c2ccncc2)n2c(=O)c(-c3cc4ccccc4[nH]3)nc3ccccc32)cc1", "note": "(stereo not given)", "Potency": "inconclusive [cytotoxic, single point]"}, {"smiles": "O=C(CN1CCN(Cc2ccc3c(c2)OCO3)CC1)N1CCc2[nH]c3ccc(F)cc3c2C1", "Potency": "inconclusive [cytotoxic, partial curve]"}, {"smiles": "COc1ccc(C(=O)NC(=S)NNC(=O)c2ccncc2)cc1Br", "Potency": "inconclusive [cytotoxic, single point]"}, {"smiles": "Cc1ccccc1Nc1c(-c2cccnc2)nc2cccc(C)n12", "Potency": "inactive"}, {"smiles": "Cc1cc(Br)ccc1NC(=O)CN(C)C(=O)CNC(=O)Cc1ccccc1", "Potency": "inactive"}, {"smiles": "COc1ccc(/C=C/C(=O)OCC(=O)NCCC2=CCCCC2)cc1S(=O)(=O)N1CCOCC1", "Potency": "inactive"}, {"smiles": "CC(=O)Nc1cccc(C(=O)O)n1", "Potency": "inconclusive [rising, partial curve]"}, {"smiles": "Cc1ccc(C)c(Cn2c3ccccc3c3cnn(CC(=O)NCc4ccccn4)c(=O)c32)c1", "Potency": "inactive"}, {"smiles": "C=CS(=O)(=O)N(Cc1ccc(Cl)c(Cl)c1)C[C@@H](O)CO", "Potency": "inconclusive [cytotoxic, partial curve]"}, {"smiles": "CCN(CC)C(=O)CSc1nc(C)cc(C)n1", "Potency": "inactive"}, {"smiles": "COc1ccc(S(=O)(=O)Nc2cc3c(C(C)=O)c(C)oc3c3ccccc23)cc1", "Potency": "active: 1.3 µM"}, {"smiles": "COCCN(C(=O)COC(=O)c1cccnc1SC)c1c(N)n(Cc2ccccc2)c(=O)[nH]c1=O", "Potency": "inactive"}, {"smiles": "CC(C)=CCc1c(O)c(CC=C(C)C)c2occ(-c3ccc(O)cc3)c(=O)c2c1O", "Potency": "inconclusive [cytotoxic, single point]"}, {"smiles": "O=C(Cc1ccc(Br)cc1)NCc1ccccc1", "Potency": "active: 8.2 µM"}, {"smiles": "Cc1cccc(-c2cc3nc(C)cc(NCCCn4ccnc4)n3n2)c1", "Potency": "inconclusive [cytotoxic, single point]"}, {"smiles": "COc1ccc(-c2coc3cc(O)c(OC)cc3c2=O)cc1", "Potency": "inconclusive [cytotoxic, single point]"}, {"smiles": "COc1ccc(-c2nc3ccccc3n2Cc2ccc(C)cc2)cc1", "Potency": "inconclusive [cytotoxic, single point]"}, {"smiles": "NC(=O)C1CCN(c2ccc(C(F)(F)F)cn2)CC1", "Potency": "inconclusive [rising, single point]"}, {"smiles": "CCn1c(C)c(CS(=O)(=O)c2ccccc2)[nH]c1=O", "Potency": "inconclusive [cytotoxic, single point]"}, {"smiles": "COc1ccc(-c2cc(-c3c(O)c(OC)c4occc4c3OC)[nH]n2)cc1OC", "Potency": "inconclusive [cytotoxic, single point]"}, {"smiles": "COc1ccc(-c2noc(N3CCC(C(=O)NCCCN4CCCC(C)C4)CC3)n2)cc1", "note": "(stereo not given)", "Potency": "inactive"}, {"smiles": "CSCCC(NC(=O)c1ccc(Cl)cc1Cl)C(=O)N(C)Cc1nc2ccccc2c(=O)[nH]1", "note": "(stereo not given)", "Potency": "inactive"}, {"smiles": "Cc1ccccc1N=C(c1ccccc1)C1C(=O)c2ccccc2C1=O", "Potency": "inconclusive [cytotoxic, single point]"}, {"smiles": "O=C(O)COc1ccccc1/C=N/NC(=O)/C(=C\\c1ccc2c(c1)OCO2)NC(=O)c1ccccc1", "Potency": "inconclusive [rising, partial curve]"}, {"smiles": "CCOC(=O)c1ccc(NC(=O)CN(c2ccc(C)cc2)S(=O)(=O)c2c(C)n[nH]c2C)cc1", "Potency": "inconclusive [cytotoxic, single point]"}, {"smiles": "O=C(N/N=C/c1ccc2c(c1)OCO2)c1cccc2ccccc12", "Potency": "inconclusive [cytotoxic, partial curve]"}, {"smiles": "O=C(Nc1ccc(Cl)c(Cl)c1)c1ccc(Cn2cc(Cl)cn2)cc1", "Potency": "inconclusive [cytotoxic, single point]"}, {"smiles": "CCn1c2ccccc2c2cc(NC(=O)c3cc(C)on3)ccc21", "Potency": "inconclusive [cytotoxic, partial curve]"}, {"smiles": "CSc1ccccc1OCc1cc(C(=O)NCCC2=CCCCC2)no1", "Potency": "inconclusive [cytotoxic, single point]"}, {"smiles": "CC(=O)N(C(C)=O)c1ncn(C)c1S(=O)(=O)Nc1ccccc1", "Potency": "inactive"}, {"smiles": "CCO[C@H]1OC(C(=O)N2CCCCCCC2)=C[C@@H](c2csc3ccccc23)[C@@H]1CCCO", "Potency": "inactive"}, {"smiles": "N#Cc1c(N)c(C(=O)c2ccc(Br)cc2)n2c1CCC2", "Potency": "inactive"}, {"smiles": "Cc1ccc(C(=O)OC(C(=O)Nc2ccc(Cl)cc2C(F)(F)F)c2ccccc2)cc1", "note": "(stereo not given)", "Potency": "inconclusive [cytotoxic, single point]"}, {"smiles": "COc1ccc(NC(=O)c2cc(-c3ccc(F)cc3OC(C)C)n[nH]2)cn1", "Potency": "inconclusive [rising, full curve, poor fit]"}, {"smiles": "CCCC1=Nc2cc(C(=O)N3CCN(c4ccccn4)CC3)ccc2Sc2ccc(C)cc21", "Potency": "inconclusive [cytotoxic, single point]"}, {"smiles": "O=C(Oc1ccc(-c2nnco2)cc1)N(c1ccccc1)c1ccccc1", "Potency": "inactive"}, {"smiles": "O=C1CSC(=S)N1c1ccc(O)cc1", "Potency": "inconclusive [cytotoxic, single point]"}, {"smiles": "S=C(SSC(=S)N1CCOCC1)N1CCOCC1", "Potency": "active: 1.16 µM"}, {"smiles": "CCOc1ccc(-n2c(-c3ccccc3)c[n+]3c2CCCCC3)cc1", "Potency": "inconclusive [cytotoxic, partial curve]"}, {"smiles": "O=C(NS(=O)(=O)Oc1ccc(Cl)cc1)OC[C@@H]1CCCN2CCCC[C@H]12", "Potency": "inactive"}, {"smiles": "CCOC(=O)c1ccc(NC(=S)Nc2ccc(Br)cc2N)cc1", "Potency": "inconclusive [cytotoxic, single point]"}, {"smiles": "CCOC(=O)c1ccc(N2C(=O)c3n[nH]c(-c4ccco4)c3C2c2cccc([N+](=O)[O-])c2)cc1", "note": "(stereo not given)", "Potency": "inconclusive [cytotoxic, single point]"}, {"smiles": "CCOC(=O)c1sc(CS(=O)(=O)c2ccc(Cl)cc2)nc1C", "Potency": "inactive"}, {"smiles": "COc1cc(O)c(C(C)=O)c2c1C=CC(C)(C)O2", "Potency": "inactive"}, {"smiles": "O=C(CN1C(=O)NC2(CCCCCC2)C1=O)N1CCN(c2ccc(F)cc2)CC1", "Potency": "inactive"}, {"smiles": "Cc1cc(-c2ccccc2)nc(N/N=C/c2cccnc2)n1", "Potency": "inactive"}, {"smiles": "N#Cc1ccc(/C=C2\\CCCCn3c2nc2cc(C(=O)O)ccc2c3=O)cc1", "Potency": "inconclusive [rising, partial curve]"}, {"smiles": "Cc1ccc(S(=O)(=O)n2cc(CO)c3ccccc32)cc1", "Potency": "inactive"}, {"smiles": "CN(C)CCNC(=O)c1cccc(-c2cccc3nccn23)c1", "Potency": "inactive"}, {"smiles": "COc1ccc2c(c1)C(=O)C(=O)N2CC1COc2ccccc2O1", "note": "(stereo not given)", "Potency": "inconclusive [cytotoxic, single point]"}, {"smiles": "Cc1ccc2cc(/C=C/C(=O)c3ccco3)c(Cl)nc2c1", "Potency": "inconclusive [cytotoxic, partial curve]"}, {"smiles": "CCCCCCCCN1C(=O)[C@H](CC(=O)NCCc2ccccc2OC)C[C@@]2(C(=O)OCC)CCCC=C12", "Potency": "inconclusive [cytotoxic, single point]"}, {"smiles": "COc1ccccc1C=CC(=O)C=Cc1ccccc1OC", "Potency": "inconclusive [cytotoxic, single point]"}, {"smiles": "O=c1cc(CNc2ccc(Br)cc2)nc2sccn12", "Potency": "inactive"}, {"smiles": "COc1cccc(N2C(=O)CC(N3CCN(C(=O)c4ccco4)CC3)C2=O)c1", "note": "(stereo not given)", "activity, negative = less viability": "inconclusive: 33.5%"}, {"smiles": "O=C(NC(=S)Nc1ccccc1)c1ccc(Br)o1", "Potency": "inactive"}, {"smiles": "CCCC[n+]1ccn(C2=C([O-])c3ccccc3C(=O)/C2=N\\S(=O)(=O)c2ccccc2)c1", "Potency": "active: 11.2 µM"}, {"smiles": "CN(C)CCNc1nc2sc3c(c2c(=O)n1-c1ccccc1)CCCCC3", "Potency": "inconclusive [cytotoxic, single point]"}, {"smiles": "O=c1c2c(nc3cc(-c4ccc(Cl)cc4)[nH]n13)CCS2", "Potency": "inactive"}, {"smiles": "CCCn1c(SCC(=O)NC2CCCCC2)nnc1-c1ccco1", "activity, negative = less viability": "inconclusive: 31%"}, {"smiles": "COCCn1c(-c2ccc(-c3ccc([N+](=O)[O-])cc3Br)o2)nc2c1c(=O)[nH]c(=O)n2CC(C)C", "activity, negative = less viability": "inconclusive: -29.4% [cytotoxic]"}, {"smiles": "O=C(CCc1ccccc1)NC(NC(=S)Nc1ccc(Br)cc1)C(Cl)(Cl)Cl", "note": "(stereo not given)", "Potency": "active: 17.8 µM"}, {"smiles": "Cc1cccc(NC(=O)/C(=C\\c2ccc([N+](=O)[O-])o2)NC(=O)c2ccc(Cl)cc2)c1", "Potency": "inactive"}, {"smiles": "Cc1onc(-c2c(F)cccc2Cl)c1C(=O)OCC(=O)c1c[nH]c2ccccc12", "Potency": "inconclusive [cytotoxic, single point]"}, {"smiles": "OCC1(Cc2ccc(F)cc2)CCCN(CCc2ccccc2)C1", "note": "(stereo not given)", "Potency": "inconclusive [cytotoxic, single point]"}, {"smiles": "COc1ccc(Nc2nnc(SCC3CCCCO3)s2)cc1", "note": "(stereo not given)", "Potency": "inactive"}, {"smiles": "Cc1ccc2cc(CN(CCN3CCCC3)C(=O)Nc3ccc(F)cc3)c(=O)[nH]c2c1C", "Potency": "active: 23.1 µM"}, {"smiles": "COc1ccc(OC(C)C(=O)N(C)Cc2nc(-c3ccc(OC)cc3)no2)cc1", "note": "(stereo not given)", "Potency": "inconclusive [cytotoxic, single point]"}, {"smiles": "COc1ccc2cc1Oc1ccc(cc1)C[C@H]1c3c(cc4c(c3Oc3cc5c(cc3OC)CCN(C)[C@@H]5C2)OCO4)CCN1C", "Potency": "active: 16.4 µM"}, {"smiles": "O=C(N/N=C/c1cc(Cl)cc(Cl)c1O)c1ccncc1", "Potency": "inconclusive [cytotoxic, full curve]"}, {"smiles": "O=C(NCc1ccco1)C1CCCN(c2nnc(-n3cccc3)s2)C1", "note": "(stereo not given)", "Potency": "active: 2.59 µM"}]}]}
